Data as given in the supplement of paper PMC8674133.
Recombinant human monoclonal antibodies (heavy:light variable regions). ELISA EC50 on the named antigen, from 10 µg/ml down; IC50 / IC90 against spike pseudovirus on 293T-ACE2 cells, 48 h; lower = stronger. Calls: IC50 above 1,000 ng/ml = non-neutralizing; EC50 above 2,000 ng/ml = non-binder. The source prints 1000 for neutralization that was not reached; it is given as >1000 ng/ml. A few antibodies were first reported in earlier work of the same group.

B1: C1239 (protein)
chain 1: QVQLVQSGAEVKKPGSSVKVSCKASGYTFSSYAISWVRQAPGQGLEWMGGIIPILGIANYAQKFQGRVTITADKSTSTAYMELSSLRSEDTAVYYCARVLYYYDSSGYYRTDDAFDIWGQGTMVTVSS
chain 2: QSVLTQPPSVSGAPGQRVTISCTGSSSNIGAGYDVHWYQQLPGTAPKLLIYGNSNRPSGVPDRFSGSKSGTSASLAITGLQAEDEADYYCQSYDSSLSGHVVFGGGTKLTVL
B2: C2429 (protein)
chain 1: QVQLQESGPGLVKPSETLSLTCTVSGGSVSSASYYWSWIRQPPGKGLEWIGYIHYSGSTNYNPSLKSRVTISVDMSKNQLSLKLRSVTAADTAVYYCARDSPYYYDSSDYYPASFDPWGQGTLVTVSS
chain 2: QSALTQPASVSGSPGQSITISCTGTSSDVGSYDLVSWYQQHPGKAPKLMIYEVSKRPSGVSYRFSGSKSGNTASLTISGLQAEDEADYYCCSYAGIRLFGGGTKLTVL
B3: C1241 (protein)
chain 1: EVQLVESGGGLVQPGGSLRLSCSASGFTFSSYAMHWVRQAPGKGLEYVSVISSNGGSTYYADSVKGRFTISRDNSKNTLYLQMSSLRAEDTAVYYCVKDWSTCSSTSCYPAGDAFDIWGQGTMVTVSS
chain 2: SYELTQPPSVSVAPGKTARITCGGNNIGSKSVHWYQQKPGQAPVQVIYYDSDRPSGIPERFSGSNSGNTATLTISRVEAGDEADYYCQVWDSSSDHVVFGGGTKLTVL
B4: C1243 (protein)
chain 1: QVQLVESGGGVVQPGGSLRLSCAASGFIFSNYGMHWVRQAPGKGLEWVAFIRYDGSNKYYVDSVKGRFTFSRDNSKNTLYLQMNSLRAEDTAVYYCAKDGGPYYYDRSGYARDDYYGMDVWGQGTTVTVSS
chain 2: QSVLTQPPSVSGAPGQRVTISCTGSSSNIGAGYDVHWYQQLPGTAPKLLIYGNSNRPSGVPDRFSGSKSGTSASLAITGLQAEDEADYYCQSYDSSLSVWVFGGGTKLTVL
B5: C1244 (protein)
chain 1: QVQLVQSGAEVKKPGSSVKVSCKASGGTFSTYTINWVRQAPGQGLEWMGGIIPFLGIANYAQKFQGRVMITADKSTSTAYMELNSLRSEDTAVYYCARQGVLYYESSGLMAHYFDYWGQGTLVTVSS
chain 2: QSVLTQPPSVSGAPGQRVTISCTGSSSNIEAGYDVHWYQQLPGTAPKLLIYGNTNRPSGVPDRFSGSQSGTLASLAITGLQAEDEADYYCQSYDSSLSGSVFGTGTKVTVL
B6: C1245 (protein)
chain 1: QVQLVQSGAEVKKPGSSVKVSCKASGGTFSRYAISWVRQAPGQGLEWMGRIIPILGIANYAQKFQGRVTITADKSTSIAYMELSSLRSEDTAVYYCARVLFYYDTSGPRSDDAFDIWGQGTMVTVSS
chain 2: QSVLTQPPSVSGAPGQRVTISCTGSSSNIGAGYDVHWYQQLPGTAPKLLIYGNSNRPSGVPDRFSGSKSGTSASLAITGLQAEDEADYYCQSYDSSLNGSGVFGGGTKLTVL
B7: C1435 (protein)
chain 1: EVQLLESGGGLVQPGGSLRLSCAASGFTFSSYAMNWVRQAPGKGLEWVSGISGRGGSTYYADSVKGRFTFSRDNSKNTLYLQMNSLRAEDTAVYYCAKGQGAYSAYDPDYYYGMDVWGQGTTVTVSS
chain 2: SYELTQPPSVSVSPGQTARITCSGDALPKQYSYWYQQKPGQAPVLVIYKESERPSGIPERFSGSSSGTTVTLTISRVQAEDEADYYCQSADYSGTYMFGGGTRLTVL
B8: C1436 (protein)
chain 1: EVQLLESGGGLVQPGGSLRLSCAASGFTFSSYAKTWVRQAPGKGLEWVSGISGSGGSTYYADSVKGRFTISSDNSKNTLYLQMNSLRAEDTAVYYCAGRYCSSNTYSGCYYYGMDVWGQGTTVTVSS
chain 2: DIQMTQSPSSLSASVGDRVTITCRASQSISSFLNWYQQKPGKAPKLLIYAASSLQSGVPSRFSGSGSGTDFTLTISSLQPEDFATYFCQQSYITPQTFGQGTKVEIK
B9: C1437 (protein)
chain 1: QVQLVQSGAEVKKPQSSVKVSCTASGGSFRNYAISWVRQAPGQGLEWMGRTIPILGIGNYAQKFQGRVTITADKSTSTAYMQLSSLRSEDTAVYYCARETWYYDRSGYPRSDEYFQYWGQGTLVTVSS
chain 2: QSVLTQPPSVSGAPGQRVTISCTGSSSNIGAGYDVHWYQQLPGTSPKLLIYGNSNRPSGVPDRFSGSKSGTSASLAITGLQAEDEADYYCQSYDSSLSGLVFGGGTKLTVL
B10: C1438 (protein)
chain 1: QVQLVQSGAEVKKPGASVKVSCKASGYTFSSNGISWVRQAPGQGLEWMGWISAYNGNTNYAQKLQGRVTMTTDTSTSTAYMELRSLRSDDTAVYYCARDLGSSGYYDSSDSYVDFDYWGQGTLVTVSS
chain 2: SYELTQPSSVSVSPGQTARITCSGDVLAKKYARWFQQKPGQAPVLVIYKDTERPSGIPERFSGSSSGTTVTLTISGAQVEDEADYYCYSAADNNRVFGGGTKLTVL
B11: C1439 (protein)
chain 1: EVQLVETGGGLIQPGGSLRLSCAASGIIVSSNYMSWVRQAPGKGLEWVSVIYSGGSTFYADSVKGRFTISRDNSKNTLYLQMNSLRAEDTAVYYCARDRGNDAFDIWGQGTMVTVSS
chain 2: DIQLTQSPSFLSASVGDRVTITCRASQGISSYLAWYQQKPGKAPKLLIYAASTLQSGVPSRFSGSGSGTEFTLTISSLQPEDFATYYCQQLNSYPPSVTFGGGTKVEIK
B12: C1441 (protein)
chain 1: EVQLVESGGGLVQPGGSLRLSCAASEFTVSSNYMNWVRQAPGKGLEWVSVIYSGGSTFYADSVKGRFTISRDNSKNTLYLQMNSLRVEDTAVYYCARELRGYFDYWGQGTLVTVSS
chain 2: DIQLTQSPSFLSASVGDRVTITCRASQGISSYLAWYQQKPGKAPKLLIYAASTLQSGVPSRFSGSGSGTEFTLTISSLQPEDFATYYCQQLNSYPMYTFGQGTKLEIK
B13: C1442 (protein)
chain 1: EVQLLESGGGLVQPGGSLRLSCAASGFTFSSYAMSWVRQAPGKGLEWVSAISGGGGSTDYADSVKGRFTISRDNSKNTLYLQMNSLRAEDTAVYYCVMDTVLITDRYFDYWGQGSLVTVSS
chain 2: SYELTQPPSVSVSPGQTARITCSGDALPNQYAYWYQQKPGQAPVLVIYKDSERPSGIPERFSGSTSGTTVTLTISGVQAEDEADYYCQSADSSGVVFGGGTKLTVL
B14: C1443 (protein)
chain 1: QVQLVESGGGVVQPGRSLRLSCAASGFTLSSHGMNWVRQAPGKGLEWVAVIWYDGSNKYYADSVKGRFTISRDNSKNTLDLQMNSLRAEDTAVYYCARDRMSSSWANFDYWGQGTLVTVSS
chain 2: NFMLTQPHSVSESPGKTVTISCTRSSGSIASNYVQWYQQRPGSSPTTVIYEDNQRPSGVPDRFSGSIDSSSNSASLTISGLKTEDEADYYCQSYDSSKHHVVFGGGTKLTVL
B15: C1444 (protein)
chain 1: QVQLVESGGGVVQPGRSLRLSCAASGFTFSSYAIHWVRQAPGKGLEWVAVISYDGSFKYCADSVKGRFTISRDNSKNTLYLQMNSLRAEDTAVYYCARESNHMVTVVFDYWGQGTLVTVSS
chain 2: DIQMTQSPSSLSASVGDRVTITCRASQTISSYLNWYQQKPGKAPKLLIYAASSLQSGVPSRFSGSGSGTDFTLTISSLQPEDFGTYYCQQSYSTLENTFGQGTKLEIK
B16: C1207 (protein)
chain 1: EVQLVESGGGLVQPGGSLRLSCAASGVIVSSNYMNWVRQAPGKGLEWVSVIYSGGSTFYADSVKGRFTISRDNSKNTLYLQMNSLRAEDTAVYYCARESYGMDVWGQGTTVTVSS
chain 2: DIQLTQSPSFLSASVGDRVTITCRASQGISSDLAWYQQKPGKAPKLLIYAASTLQSGVPSRFSGSGSGTEFTLTISSLQPEDFATYYCQQLNSYPPRYTFGQGTKLEIK

molecular target: SARS-CoV-2 Wuhan-Hu-1 spike pseudovirus; test: pseudovirus neutralization IC50; higher = weaker neutralization
Description: (§1)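 Single-round luciferase reporter pseudovirus mixed with antibody dilutions and put on 293T-ACE2 cells for 48 h; signal relative to no-antibody wells, four-parameter fit.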

Binder | pseudovirus neutralization IC50
B1 | 0.414 µg/mL
B2 | > 1 µg/mL
B3 | > 1 µg/mL
B4 | 0.0608 µg/mL
B5 | 0.0101 µg/mL
B6 | 0.0178 µg/mL
B7 | 0.352 µg/mL
B8 | 0.00304 µg/mL
B9 | 0.0724 µg/mL
B10 | > 1 µg/mL
B11 | 0.00289 µg/mL
B12 | 0.00794 µg/mL
B13 | > 1 µg/mL
B14 | 0.474 µg/mL
B15 | > 1 µg/mL
B16 | 0.00643 µg/mL

molecular target: SARS-CoV-2 Wuhan-Hu-1 spike pseudovirus; test: pseudovirus neutralization IC90; higher = weaker neutralization
Description: as §1

Binder | pseudovirus neutralization IC90
B1 | > 1 µg/mL
B2 | > 1 µg/mL
B3 | > 1 µg/mL
B4 | 0.65 µg/mL
B5 | > 1 µg/mL
B6 | 0.344 µg/mL
B7 | > 1 µg/mL
B8 | 0.0396 µg/mL
B9 | 0.489 µg/mL
B10 | > 1 µg/mL
B11 | 0.0871 µg/mL
B12 | 0.103 µg/mL
B13 | > 1 µg/mL
B14 | > 1 µg/mL
B15 | > 1 µg/mL
B16 | 0.145 µg/mL

molecular target: SARS-CoV-2 Wuhan-Hu-1 spike receptor-binding domain; test: ELISA binding EC50; higher = weaker binding; ELISA of recombinant human antibody on coated antigen, from 10 µg/ml in fourfold dilutions; four-parameter fit.

Binder | ELISA binding EC50
B1 | 0.00377 µg/mL
B2 | 0.00413 µg/mL
B3 | 0.00355 µg/mL
B4 | 0.00246 µg/mL
B5 | 0.00332 µg/mL
B6 | 0.00335 µg/mL
B7 | 0.00419 µg/mL
B8 | 0.00206 µg/mL
B9 | 0.00358 µg/mL
B10 | 0.00401 µg/mL
B11 | 0.00248 µg/mL
B12 | 0.00282 µg/mL
B13 | 0.00292 µg/mL
B14 | 0.00277 µg/mL
B15 | 0.00227 µg/mL
B16 | 0.00201 µg/mL
